Structures are written as SMILES. In all, about 48,000 compounds went through this assay and about 120 (0.25%) were called active. About 4% were inconclusive and are not listed. Calls follow the shape of the dose curve; as a rule, active = well fitted activation curve with a large enough effect; inconclusive = small, poorly fitted or top-dose-only effect, or another doubt; inactive = no such curve, though single readings can be large or run the other way. The list shows a part of the results.
Potency is read from the fitted curve at half-maximal effect.

The nature of the assay: Primary qHTS for Identification of Small Molecule Activators of Huntingtin-Antisense Promoter Activity. Also: nearly all actives have a fitted effect of over 55% in size. As to conditions: HEK293 HTT-AS promoter firefly luciferase reporter (activity 0% = vehicle and -100% = no light), 24 h; series mostly up to 57.5 µM; activity change, positive = activation: at the top concentration. A digest of the protocol:
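Luminescence was read after Dual-Glo reagent and a 10 min room-temperature incubation. Values were normalized to vehicle (0% activity) and zero RLU (-100% activity). Reporter HEK293 cells had been exposed to compounds (up to 57.5 uM final) for 24 h.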
For `COc1ccc(CCNC(=O)CCCCn2c(=O)c3ccccc3n(CC(=O)Nc3ccc(C)cc3C)c2=O)cc1OC`, the “activity change, positive = activation” value is inactive: -4.11%.

In the case of `O=C(COc1ccccc1)NCCc1csc(-c2cccc(F)c2)n1`, the “activity change, positive = activation” value was inactive: -5.28%.

`CCN1C(=O)C(Cc2nc3ccccc3c(=O)n2-c2ccc(OC)cc2)c2cc(C)ccc21` (stereo not drawn): the “activity change, positive = activation” value is inactive: -25.5%.

Take `N#Cc1cccc(NC(=O)Cn2nc(Cc3ccncc3)c3ccccc3c2=O)c1`: the “activity change, positive = activation” value was inactive: -26.4%.

For `Cc1nnc(N2CCCC(C(=O)Nc3cccc(C(F)(F)F)c3)C2)c2nn(-c3ccccc3)c(C)c12` (stereo not drawn), the “activity change, positive = activation” value was inactive: -44.1%.

For `O=C(Nc1cccc(Cl)c1)c1cc(-c2ccc3c(c2)OCCO3)on1`, the “activity change, positive = activation” value is inactive: -32%.

`Cc1cccc(C(=O)Nc2cccc(OCc3cc(=O)n4cccc(C)c4n3)c2)c1`: the “activity change, positive = activation” value was inactive: 0.312%.

Consider `Cc1cccc(N(C)C(CNS(=O)(=O)c2ccccc2)c2ccccc2)c1` (stereo not drawn), for which the “activity change, positive = activation” value was inactive: -30.5%.

Consider `CCN(CC)CCNC(=O)C(=O)NCC(c1cccnc1)N1CCN(c2ccccc2)CC1` (stereo not drawn), for which the “activity change, positive = activation” value is inactive: -19.8%.

Take `O=C(O)CN1C(=O)c2cccc3cccc(c23)C1=O`: the “activity change, positive = activation” value was inactive: -0.109%.

With `Cc1cccc(-n2c(SCc3nc(-c4ccccc4C)no3)nnc2-c2ccccc2)c1`, the “activity change, positive = activation” value is inactive: -17.1%.

With `FC(F)(F)C(Cl)Br` (stereo not drawn), the “activity change, positive = activation” value was inactive: 0.24%.

With `CC(C)S(=O)(=O)c1oc(-c2ccc(F)cc2)nc1S(=O)(=O)c1ccccc1`, the “activity change, positive = activation” value was inactive: -95.7%.

Regarding `CN1CCN(c2oc(/C=C/c3ccc(F)cc3)nc2C#N)CC1`, the “activity change, positive = activation” value is inactive: -13.1%.

For the compound `CCOC(=O)c1ccccc1NS(=O)(=O)c1ccc(N2CCCCS2(=O)=O)cc1`, the “activity change, positive = activation” value is inactive: -24.3%.

In the case of `COc1cc(NC(=O)c2nn(-c3ccc(C)cc3)c(=O)c3c2c2ccccc2n3C)cc(OC)c1OC`, the “activity change, positive = activation” value was inactive: 0.364%.

Consider `CCc1nn(CC(=O)NC(C)CC)c(=O)c2cc3c(OC)cccc3n12` (stereo not drawn), for which the “activity change, positive = activation” value was inactive: -5.28%.

As for `CC[N+](C)(CC)CCOC(=O)C1c2ccccc2Oc2ccccc21`, the “activity change, positive = activation” value is inactive: -12.3%.

On to `CCOc1ccc(-n2nc(CO)c(C(=O)NCc3cccnc3)n2)cc1`, for which the “activity change, positive = activation” value was inactive: -7.72%.

For the compound `COc1ccc(-c2noc(-c3ccc(N4CCN(c5ccc(OC)cc5)CC4)c([N+](=O)[O-])c3)n2)cc1`, the “activity change, positive = activation” value is inactive: -0.585%.

With `COc1cccc(N2CCN(C(=O)c3cc4c(=O)n(Cc5ccccc5)ccc4nc3C)CC2)c1`, the “activity change, positive = activation” value is inactive: -19.6%.

For `Cc1cccn2c(=O)c(C(=O)NCc3ccccc3Cl)c(O)nc12`, the “activity change, positive = activation” value is inactive: 9.5%.

As for `Cc1ccc(C(=O)c2ccc(CC(=O)O)n2C)cc1`, the “activity change, positive = activation” value is inactive: -9.09%.

Turning to `COC(=O)c1c(NC(=O)Cc2coc3ccc(C)cc23)sc2c1CCC2`, the “activity change, positive = activation” value is inactive: -8.84%.

`Cc1cccc(NC(=O)c2sc3nc4c(cc3c2N)CCCCCC4)c1C`: the “activity change, positive = activation” value is inactive: -27.6%.

`COc1ccc(-n2nc(C(=O)Nc3ccc(Cl)cn3)c3c4ccccc4n(C)c3c2=O)cc1Cl`: the “activity change, positive = activation” value is inactive: -15.5%.

Regarding `CC(C)C1C(=O)Nc2ccc(S(=O)(=O)NCc3ccc(Cl)cc3)cc21` (stereo not drawn), the “activity change, positive = activation” value is inactive: -43.3%.

Consider `COc1ccc(C2C(C(N)=O)=C(C)Nc3nc(CCCO)nn32)cc1` (stereo not drawn), for which the “activity change, positive = activation” value is inactive: 23.1%.

Regarding `Cc1ccc(CCNC(=O)c2cc(Nc3ccc(C)c(C)c3)nc3ccccc23)cc1`, the “activity change, positive = activation” value is inactive: -8.53%.

Consider `Cc1ccc(NC(=O)CSc2c3c(nc4ccccc24)CCCC3)cc1F`, for which the “activity change, positive = activation” value was inactive: -30.8%.

Regarding `O=C(c1ccccc1Cl)N(Cc1ccco1)Cc1ccco1`, the “activity change, positive = activation” value was inactive: 0.0891%.

`Cc1ccccc1Nc1c(-c2cccc(N(C)C)c2)nc2ccc(Br)cn12`: the Potency was active: 11.2 µM.

Consider `Cc1cc(F)ccc1-n1nnc(C(N)=O)c1C`, for which the “activity change, positive = activation” value is inactive: -21.8%.

`CC(=O)c1cccc(NC(=O)c2c(-c3ccccc3)c(-c3ccccc3)nn(C)c2=O)c1`: the “activity change, positive = activation” value is inactive: -25.6%.

Take `CCCCN(CCCC)CCCOC(=O)c1ccc(N)cc1`: the “activity change, positive = activation” value is inactive: -7.83%.

Regarding `Cc1cc(C(F)(F)F)nn1-c1nc(-c2ccccc2)cc(C(F)(F)F)n1`, the “activity change, positive = activation” value is inactive: 2.95%.

For the compound `CCOC(=O)c1ccc(NC(=O)CC2C(=O)N(c3ccc(C)cc3)C(=O)N2C2CCCCC2)cc1` (stereo not drawn), the “activity change, positive = activation” value was inactive: -8.4%.

Take `Cc1cc(=O)n(CC(=O)Nc2ccc([N+](=O)[O-])cc2)c(-n2nc(C)cc2C)n1`: the “activity change, positive = activation” value was inactive: -17.8%.

For `Cc1[nH]c2ccccc2c1C(c1ccccc1)c1cccs1` (stereo not drawn), the “activity change, positive = activation” value was inactive: -31.2%.

Take `Cc1ccccc1NC(=O)Cn1c(=O)n(CCc2ccccc2)c(=O)c2sc3ccccc3c21`: the “activity change, positive = activation” value is inactive: -4.79%.

For `COc1ccc(CCN2C(=O)c3[nH]nc(-c4ccccc4O)c3C2c2cccc(OC)c2)cc1` (stereo not drawn), the “activity change, positive = activation” value is inactive: -32.9%.

As for `CCOC(=O)C1(C)C=C(Nc2ccc(Br)cc2)C(=O)N1c1ccccc1` (stereo not drawn), the “activity change, positive = activation” value was inactive: 1.79%.

As for `CCn1c(=NC(=O)c2ccc3c(c2)OCCO3)sc2c(C)ccc(OC)c21`, the “activity change, positive = activation” value was inactive: -45.2%.

As for `CCCCCCCCCCCCCCCCCCNC(=O)OC1CCN(C(=O)OC[C@H](COC(=O)N(Cc2cccc[n+]2CC)C(=O)c2ccccc2OC)OC)CC1`, the “activity change, positive = activation” value was inactive: -38.8%.

Take `Cc1ccc(NC(=O)CSc2nc(C)c(Cc3ccccc3)c(=O)[nH]2)cc1C`: the “activity change, positive = activation” value is inactive: -17.1%.

`Cc1nn(C(C)C(=O)NC2CCCCC2)c(=O)c2c1sc1ccccc12` (stereo not drawn): the “activity change, positive = activation” value is inactive: -5.43%.

Turning to `Cc1ccc(-c2nnc(Nc3ccc(Br)cc3)c3ccccc23)cc1S(=O)(=O)N1CCN(C)CC1`, the “activity change, positive = activation” value is inactive: -40.7%.

As for `COc1ccc(CC(=O)NC2CC(=O)N(c3cccc(F)c3)C2)cc1` (stereo not drawn), the “activity change, positive = activation” value was inactive: 19%.

Values taken from PubChem BioAssay AID1508624 (National Center for Advancing Translational Sciences (NCATS), 2021).
